# Measured values reported in PubChem BioAssay AID1030 (National Center for Advancing Translational Sciences (NCATS), 2008).
# In all, about 220,000 compounds went through this assay and about 16,000 (7.3%) were called active. The inconclusive results got no clear call from the source; some entries with a clear call stand among them for comparison. Calls follow the shape of the dose curve; as a rule, active = well fitted inhibition curve with a large enough effect (not every such curve was filed as active); inconclusive = small, poorly fitted or top-dose-only effect, or another doubt; inactive = no such curve, though single readings can be large or run the other way. Potencies of inconclusive entries are left out as doubtful fits.
# Target: Aldehyde dehydrogenase 1A1 (Homo sapiens) (UniProt P00352)
# Chain of UniProt P00352 (P00352 whole entry, looked up): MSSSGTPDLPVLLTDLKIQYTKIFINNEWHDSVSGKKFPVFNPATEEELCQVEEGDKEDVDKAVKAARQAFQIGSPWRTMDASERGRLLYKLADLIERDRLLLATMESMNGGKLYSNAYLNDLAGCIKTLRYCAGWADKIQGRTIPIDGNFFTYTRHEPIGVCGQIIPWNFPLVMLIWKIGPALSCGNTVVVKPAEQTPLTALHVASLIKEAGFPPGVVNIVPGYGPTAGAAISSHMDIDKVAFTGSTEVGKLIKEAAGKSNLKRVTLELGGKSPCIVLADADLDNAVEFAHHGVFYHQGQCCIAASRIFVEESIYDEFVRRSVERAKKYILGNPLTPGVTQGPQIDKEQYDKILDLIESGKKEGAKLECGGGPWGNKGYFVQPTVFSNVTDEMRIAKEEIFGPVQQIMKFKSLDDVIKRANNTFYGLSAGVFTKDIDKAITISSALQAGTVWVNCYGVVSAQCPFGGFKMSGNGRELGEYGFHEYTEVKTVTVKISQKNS
# Assay: qHTS Assay for Inhibitors of Aldehyde Dehydrogenase 1 (ALDH1A1);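 as to activity, negative = inhibition: plate controls were no enzyme wells and a reference inhibitor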
# Details: Purified ALDH1A1, NADH fluorescence, propionaldehyde substrate; series mostly up to 75.3 µM; activity, negative = inhibition: at the top concentration
# Potency is read from the fitted curve at half-maximal effect; tags tell the direction and shape of the fitted curve.
SMILES,Potency,"activity, negative = inhibition"
COc1ccc(CN2CCNC(=O)C2CC(=O)O)c(OC)c1 (stereo unspecified),"inconclusive [inhibitor, single point]",–
O=C(c1cccs1)N(Cc1ccccn1)Cc1ccco1,"inconclusive [inhibitor, single point]",–
O=C(CSc1nnc(-c2ccccc2)n1Cc1ccco1)Nc1ccc2c(c1)OCCO2,"inconclusive [inhibitor, single point]",–
COc1cccc(-n2nnc3c(=O)n(CC(=O)Nc4cc(C)on4)cnc32)c1,"inconclusive [inhibitor, single point]",–
NC(=O)N/N=C/c1ccccc1OC(=O)c1ccccc1Br,–,inactive: 9.47%
CCCCOc1ccc(C(O)(CCC)CCN2CCOCC2)cc1 (stereo unspecified),active: 5.62 µM,–
CN1CCN(c2ncnc3ccc(-c4ccoc4)cc23)CC1,"inconclusive [inhibitor, partial curve]",–
O=c1c2cc(NC(=S)NC3CCCCC3)ccc2nc2n1CCCCC2,"inconclusive [inhibitor, partial curve]",–
CCOC(=O)c1c(NC(=O)CSc2nnnn2-c2ccc3c(c2)OCCO3)sc(C)c1C,"inconclusive [inhibitor, partial curve]",–
CSc1ccc(CN(C)Cc2nc3cc(C(F)(F)F)ccc3c(=O)[nH]2)cc1,"inconclusive [inhibitor, single point]",–
COc1ccc(-n2c(=O)c(C)nc3cnc(Oc4ccccc4)nc32)cc1,active: 2.51 µM,–
Cc1cc(C(=O)N/N=C(\CCC(=O)O)c2cccs2)c2ccccc2n1,active: 25.1 µM,–
CCOC(=O)C1=C(C)NC(=O)NC1c1ccc(OC(=O)c2ccco2)c(OC)c1 (stereo unspecified),–,inactive: 0.845%
COC(=O)C(NS(=O)(=O)c1ccc(C)cc1)c1ccccc1 (stereo unspecified),–,inactive: -15.6%
COc1cc(Cl)ccc1NC(=S)N(CCCN1CCOCC1)Cc1cn(C)c2ccccc12,"inconclusive [inhibitor, single point]",–
O=C(N/N=C/c1ccc[nH]1)c1sc2ccccc2c1Cl,"inconclusive [inhibitor, partial curve]",–
O=C(Nc1ccc2c(c1)OCCO2)C1CCN(c2cnccn2)CC1,–,inactive: 0.676%
CCCOc1ccccc1NC(=O)Nc1ccccc1Cl,–,inactive: -3.18%
Cc1cccc(-n2ncc3c(NCc4cccs4)ncnc32)c1,"inconclusive [inhibitor, single point]",–
Cc1cc2nc(/N=C(\N)NC(=O)N3c4ccccc4Sc4ccccc43)nc(C)c2cc1C,–,inactive: -0.423%
Cc1ccc(-c2cc(C(=O)NCc3cccs3)no2)cc1,–,inactive: 14.5%
O=C(NNC(=O)c1ccc(Oc2cc(Cl)cc(Cl)c2)o1)c1ccccc1,–,inactive: 10.1%
Cc1ccc(OCC(=O)N/N=C\c2cccs2)c([N+](=O)[O-])c1,"inconclusive [inhibitor, single point]",–
O=C(O)c1cc(NN=Nc2cccc([N+](=O)[O-])c2)cc([N+](=O)[O-])c1,active: 20 µM,–

SMILES,Potency,"activity, negative = inhibition"
COc1ccc(CNC(=O)C/C(C)=N/NC(=O)COc2cccc(C)c2)cc1,"inconclusive [inhibitor, single point]",–
CCn1nnc(-c2ccccc2NC(=O)c2cccc(-n3cnnn3)c2)n1,"inconclusive [inhibitor, partial curve]",–
O=C(CN1CCOCC1)Nc1ccc(C2CCCCC2)cc1,active: 25.1 µM,–
CC1(C)C2CCC1(CS(=O)(=O)N1CCCc3ccccc31)C(=O)C2 (stereo unspecified),"inconclusive [inhibitor, single point]",–
O=C(c1ccco1)N1CCN(C(=O)c2snc3ccc(Cl)cc23)CC1,"inconclusive [inhibitor, single point]",–
COCCNC(=O)c1ccc(N2CCCCC2)c(NS(=O)(=O)c2ccc(C)cc2)c1,active: 8.91 µM,–
CCOC(=O)c1c(NC(=O)C(C)N2CCN(C(=O)c3ccco3)CC2)sc2c1CCCC2 (stereo unspecified),active: 22.4 µM,–
CCN(CC)CCCOc1ccc(C)cc1Br,"inconclusive [inhibitor, partial curve]",–
O=C(Cc1cccc2ccccc12)NC(NC(=S)Nc1ccccc1Cl)C(Cl)(Cl)Cl (stereo unspecified),"inconclusive [inhibitor, single point]",–
CC(C)Oc1cccc(C(=O)Nc2ccc(N3CCN(S(C)(=O)=O)CC3)cc2)c1,–,inactive: 5.5%
c1ccc(Nc2nc(NCC3CCCO3)c3ccccc3n2)cc1 (stereo unspecified),"inconclusive [inhibitor, single point]",–
COc1cc([N+](=O)[O-])ccc1NC(=O)CCCOc1cccc(C)c1,–,inactive: -14.9%
Cc1ccc(S(=O)(=O)n2nc(OC(=O)c3c(-c4ccccc4Cl)noc3C)cc2N)cc1,"inconclusive [inhibitor, single point]",–
FC(F)(F)c1nnc2c(Sc3ccccn3)nc3ccccc3n12,"inconclusive [inhibitor, partial curve]",–
CC(OC(=O)c1ccc2c(=O)n3c(nc2c1)CCCCC3)C(=O)Nc1ncc(Cl)cc1Cl (stereo unspecified),"inconclusive [inhibitor, partial curve, poor fit]",–
CCOC(=O)c1c(NC(=O)C(F)(OC)C(F)(F)F)sc2c1CCN(C)C2 (stereo unspecified),"inconclusive [inhibitor, single point]",–
NS(=O)(=O)c1cc(C(=O)O)cc(N2CCCC2)c1Oc1ccccc1,"inconclusive [inhibitor, partial curve]",–
CCOc1ccc(Nc2nc(Cc3nnc(SCC(=O)c4ccc(C)c(C)c4)o3)cs2)cc1,–,inactive: 12.2%
CC1CCc2c(sc(NC(=O)c3ccc(-c4ccccc4[N+](=O)[O-])o3)c2C#N)C1 (stereo unspecified),"inconclusive [inhibitor, partial curve]",–
COc1ccc(/C=C/C(=O)NCCSCc2ccco2)cc1OC,"inconclusive [inhibitor, partial curve]",–
COc1ccc2[nH]c(=O)c(CN(CCO)S(=O)(=O)c3ccc4c(c3)OCCO4)cc2c1,"inconclusive [inhibitor, partial curve]",–
Cn1nnnc1SCC(=O)Nc1ccccc1[N+](=O)[O-],"inconclusive [inhibitor, single point]",–
Cc1ccc(S(=O)(=O)/C(C#N)=C/c2c(N3CCOCC3)nc3ccccn3c2=O)cc1,–,inactive: 2.04%
CC(=O)Nc1cccc(OCC(=O)Nc2ccc(F)cc2)c1,–,inactive: -2.45%

SMILES,Potency,"activity, negative = inhibition"
CN(C)c1ccc(-c2nnn(Cc3ccccc3Br)n2)cc1,"inconclusive [inhibitor, single point]",–
CC1(C)CC(=O)c2cc(OCC(=O)NCCCN3CCN(c4ccccc4F)CC3)ccc2O1,"inconclusive [inhibitor, partial curve]",–
COc1ccc(NC(=O)C2(c3ccc(NC(=O)c4ccc(OC)cc4)cc3)CCCC2)cc1,"inconclusive [inhibitor, single point]",–
CCOc1ccc(-n2c(Cc3cc(=O)[nH]c(=O)[nH]3)nnc2SCC(=O)NC2CCCC2)cc1,–,inactive: -3.54%
CCOCCCNC(=O)C(NC(=O)c1ccccc1O)c1ccccc1 (stereo unspecified),"inconclusive [inhibitor, single point]",–
O=C(NC1CCCCC1)Oc1ccccc1,"inconclusive [inhibitor, single point]",–
CCN(Cc1ccccc1)c1ccc(N=Nc2nn(C)c(C)c2[N+](=O)[O-])cc1,–,inactive: -5.95%
CN(CCCNC(=O)c1cn(C)c2ccc(S(=O)(=O)N(C)C)cc2c1=O)c1ccccc1,"inconclusive [inhibitor, single point]",–
Cc1ccc(-c2ccc3nnc(SCC(=O)NCC4CCCO4)n3n2)cc1 (stereo unspecified),"inconclusive [inhibitor, partial curve]",–
O=C(CCN1C(=O)c2cccc3cccc(c23)C1=O)NCc1ccco1,"inconclusive [inhibitor, single point]",–
COc1ccc(-c2nnc3sc(COc4ccccc4)nn23)cc1,–,inactive: -5.56%
O=C(CSc1cn(CCNC(=O)c2cccs2)c2ccccc12)NC1CCCC1,"inconclusive [inhibitor, single point]",–
CCOc1cccc(C(=O)NC(=S)Nc2ccc3c(c2)OCCO3)c1,active: 3.98 µM,–
O=C(N/N=C/c1ccc2nccnc2c1)c1cccc([N+](=O)[O-])c1,"inconclusive [inhibitor, single point]",–
CCOC(=O)c1cnc2c(C)cccc2c1Nc1ccc(N2CCOCC2)cc1,–,inactive: 4.58%
CCOc1ccc(N2C(=O)CC(N3CCN(c4ccccc4F)CC3)C2=O)cc1 (stereo unspecified),"inconclusive [inhibitor, single point]",–
O=C(Nc1ccccc1)Nc1nnc(-c2ccccc2)o1,"inconclusive [inhibitor, single point]",–
Cc1ccc(C(=O)N2CCCC(c3nc4c(nnn4Cc4ccccc4)c(=O)[nH]3)C2)cc1 (stereo unspecified),"inconclusive [inhibitor, full curve]",–
COc1cccc(NS(=O)(=O)c2ccc(OC)c(OC)c2)c1,"inconclusive [inhibitor, single point]",–
O=C(NC(=S)Nc1ccc(N2CCOCC2)cc1)c1cccs1,"inconclusive [inhibitor, single point]",–
NC(N)=N/N=C\c1ccc(O)c(C(=O)O)c1,"inconclusive [inhibitor, single point]",–
COc1ccc(Cc2nnc3c4cnn(C)c4ncn23)cc1,–,inactive: 1.66%
CCC(=O)Nc1ccc(-c2csc(C)n2)cc1,–,inactive: 6.1%
